Our source for the binding signal values is PMC10668032.

The other results are listed elsewhere or left out. At the low end of the ranking the order means little.

This experiment has as its target SIX1 homeodomain (reference allele) (UniProt Q15475). As to the kind of experiment: universal protein binding microarray. The following applies: Universal all-10-mer PBM (8x60K, AMADID 030236), 300 nM GST-tagged protein, Alexa Fluor 488 anti-GST; buffer, salt, pH and temperature not stated; high values mean tight binding; most listed sequences are background and not binding sites; double strand, one strand shown.
For the sequence GTGGCTCA, the binding signal amounted to 0.0729 E-score.

Consider CTAAAGCC, for which the binding signal is -0.252 E-score.

For CGTCCAAA, the binding signal is -0.265 E-score.

Consider AATGGCAA, for which the binding signal is -0.141 E-score.

Consider GTTAAGAA, for which the binding signal was -0.0913 E-score.

Turning to GATGATAA, the binding signal was found to be 0.126 E-score.

Regarding CTCAGTGA, the binding signal came out at 0.0438 E-score.

Take ATGTGGGG: the binding signal was -0.0203 E-score.

Turning to CGTTTTAG, the binding signal is -0.18 E-score.

For the sequence CACTCATC, the binding signal is -0.0372 E-score.

In the case of AGGGAATA, the binding signal is -0.005 E-score.

With ATCTCTCG, the binding signal turned out to be 0.142 E-score.

On to CTGTCTCC, for which the binding signal is -0.0818 E-score.

In the case of AGTCGGCG, the binding signal was -0.273 E-score.

With ACGTACCG, the binding signal was -0.116 E-score.

For the sequence AGAACGTC, the binding signal was -0.103 E-score.

AAAGGCCC: the binding signal is -0.163 E-score.

Consider ACCTTTTA, for which the binding signal was -0.15 E-score.

With CGAACTTC, the binding signal was -0.321 E-score.

For AACCGTCT, the binding signal was found to be 0.0013 E-score.

Regarding CAACCAAA, the binding signal was -0.13 E-score.

Take AGTGGGAG: the binding signal is -0.0979 E-score.

On to CGGTCAGC, for which the binding signal was -0.111 E-score.

On to GCTGCTAC, for which the binding signal was -0.179 E-score.

On to AGTCCTGA, for which the binding signal was determined as 0.0476 E-score.

Consider GTGTATTA, for which the binding signal was found to be 0.271 E-score.

AGACACCC: the binding signal amounted to 0.335 E-score.

On to CATTATAC, for which the binding signal came out at 0.28 E-score.

AGAGTGAT: the binding signal was determined as 0.268 E-score.

Turning to ATGGCTGG, the binding signal is -0.0985 E-score.

With GCTGGAAA, the binding signal is -0.0272 E-score.

On to GAGTAGAA, for which the binding signal is -0.0427 E-score.

For the sequence ATACTATG, the binding signal was 0.297 E-score.

In the case of GTAACGCA, the binding signal was -0.16 E-score.

Consider GCGGGTAA, for which the binding signal was -0.0604 E-score.

As for CAAAGAAG, the binding signal is -0.125 E-score.

CTAGCCGC: the binding signal is -0.0419 E-score.

As to ACTAGGAG, the binding signal was -0.033 E-score.

As to CCACCCGC, the binding signal is 0.027 E-score.

For the sequence CAACACCA, the binding signal was determined as 0.282 E-score.

Regarding ATTGCTAA, the binding signal is 0.0276 E-score.

In the case of CTGTTTTC, the binding signal was -0.178 E-score.

ACACCCAG: the binding signal is 0.278 E-score.

Take AATGAGGG: the binding signal is -0.0228 E-score.

ACCATTTC: the binding signal is -0.254 E-score.

Take ATCAAGTG: the binding signal came out at 0.118 E-score.

With GCATACAA, the binding signal turned out to be 0.0913 E-score.

As for GTACTCCA, the binding signal is -0.0526 E-score.

With AACGTTGG, the binding signal is -0.142 E-score.

As to CCGCGTCA, the binding signal was -0.0553 E-score.

For GGTCGCCA, the binding signal was -0.241 E-score.

Turning to CACCGGGC, the binding signal is -0.195 E-score.

For AGAAAGAG, the binding signal is -0.0728 E-score.

Regarding ACCTGGCT, the binding signal was 0.103 E-score.

For GGACAACC, the binding signal was -0.173 E-score.

As to CTGAGAGA, the binding signal was 0.0122 E-score.

For the sequence ACGGGTAT, the binding signal was found to be 0.435 E-score.

For the sequence AGAGCTCC, the binding signal was -0.1 E-score.

As to ATCCTATA, the binding signal came to 0.296 E-score.

As to GCTAAGAC, the binding signal was -0.039 E-score.

As to CCAAGGAG, the binding signal was -0.0488 E-score.

On to ACATACGT, for which the binding signal is -0.0428 E-score.

For CTGGTCGA, the binding signal is -0.0879 E-score.

On to CAACCTCC, for which the binding signal is -0.167 E-score.

In the case of CCTTGCGA, the binding signal worked out at 0.0137 E-score.

Regarding AACCATGA, the binding signal was 0.00475 E-score.

In the case of GAACCTCA, the binding signal was -0.076 E-score.

For ATGGAGAC, the binding signal was determined as 0.107 E-score.

ACACTAGG: the binding signal is 0.0978 E-score.

Turning to GGAGAGAC, the binding signal was 0.0507 E-score.

For the sequence CACTACGA, the binding signal turned out to be 0.0453 E-score.

Regarding CGCGGAAG, the binding signal was -0.0913 E-score.

Take CATCTAGG: the binding signal was 0.144 E-score.

Consider CAACAATA, for which the binding signal was found to be 0.0757 E-score.

For the sequence ACTTGTAC, the binding signal is -0.0525 E-score.

With GCGTGTGA, the binding signal turned out to be 0.113 E-score.

TAGAACAA: the binding signal is -0.167 E-score.

In the case of ATGGAGTG, the binding signal is -0.104 E-score.

For the sequence AGTACGTC, the binding signal is -0.0172 E-score.

Consider ACCATGAA, for which the binding signal is -0.0204 E-score.

For the sequence GGTTCCAA, the binding signal is 0.0565 E-score.

As to CAATCAGC, the binding signal is -0.146 E-score.

For the sequence AACCCCAC, the binding signal was found to be 0.122 E-score.

CCGGACGA: the binding signal was 0.221 E-score.

As to TCAAACGA, the binding signal turned out to be 0.11 E-score.

Take GGGTGAAC: the binding signal was -0.0592 E-score.

Turning to CGATCCCC, the binding signal was 0.437 E-score.

AAGCATTG: the binding signal was -0.214 E-score.

With AAGGTCCA, the binding signal was -0.145 E-score.

For CTTGTCCC, the binding signal was -0.206 E-score.

GAGCTGAA: the binding signal was -0.18 E-score.

Consider AACGGCGG, for which the binding signal is -0.0734 E-score.

For GCGTCGCA, the binding signal was -0.0258 E-score.

Turning to CCTCACAA, the binding signal was 0.0691 E-score.

For ATGCGCGG, the binding signal was -0.0787 E-score.

Regarding AATCTTTC, the binding signal was -0.258 E-score.

On to CCAAACGA, for which the binding signal is -0.0944 E-score.

With AGTACTCA, the binding signal is -0.0613 E-score.

In the case of CAGACGAG, the binding signal was -0.0269 E-score.

For the sequence GAACTTCC, the binding signal was -0.347 E-score.

Consider AAGTATGG, for which the binding signal was -0.0682 E-score.

ATGACCGA: the binding signal came to 0.0546 E-score.

For the sequence CGTCGCTC, the binding signal was -0.0861 E-score.

Consider ATTGGGTA, for which the binding signal was 0.0711 E-score.

Consider GTACCACA, for which the binding signal is -0.172 E-score.

Take AAGACCTG: the binding signal was -0.0683 E-score.

On to AAGCAGCT, for which the binding signal was -0.318 E-score.

In the case of CTCTTCTA, the binding signal was determined as 0.0433 E-score.

Consider ACCTAAGG, for which the binding signal is -0.0621 E-score.

ACCGAAGC: the binding signal was -0.272 E-score.

Regarding GCCCGACA, the binding signal is -0.108 E-score.

For the sequence CCGTGAAA, the binding signal is -0.133 E-score.

With ACTGTTTC, the binding signal was -0.236 E-score.

Turning to CATTGTCA, the binding signal is -0.142 E-score.

Consider GAATGGGC, for which the binding signal is -0.191 E-score.

Regarding AGAAGACG, the binding signal is -0.0107 E-score.

For the sequence ACAAATTC, the binding signal was determined as 0.0756 E-score.

Turning to AATGGAGT, the binding signal was -0.223 E-score.

With ATTCCGAG, the binding signal worked out at 0.0467 E-score.

With ATAGTAGC, the binding signal was found to be 0.187 E-score.

On to GACCGCCA, for which the binding signal was -0.18 E-score.

With ATGAACAT, the binding signal is -0.0549 E-score.

On to CCAAAATA, for which the binding signal was found to be 0.033 E-score.

Take TACATACA: the binding signal came out at 0.181 E-score.

As for CTGCGGTA, the binding signal is 0.0424 E-score.

CTAGAAAA: the binding signal is -0.155 E-score.

CTCATAGA: the binding signal is 0.0368 E-score.

With CTCACTGA, the binding signal was -0.0546 E-score.

As to CACTGGTC, the binding signal was -0.0959 E-score.

For the sequence ACTAGTGC, the binding signal was -0.247 E-score.

GCATGCTA: the binding signal turned out to be 0.00441 E-score.

For AAAGACAA, the binding signal was -0.193 E-score.

For the sequence GGCATCAC, the binding signal is 0.0526 E-score.

As for GACACGAA, the binding signal is -0.116 E-score.

Consider AGAACTTG, for which the binding signal was -0.217 E-score.

For AGCATGTA, the binding signal is -0.0593 E-score.

Regarding ATCTGGTG, the binding signal was determined as 0.266 E-score.

For ACCTATGA, the binding signal came out at 0.075 E-score.

As to CAGTTCCG, the binding signal is -0.0941 E-score.

Regarding CGTCAGGA, the binding signal was -0.0375 E-score.

CAGGCAAA: the binding signal is -0.156 E-score.

As for CTGCCCGA, the binding signal was -0.00468 E-score.

With GTCTATAA, the binding signal was found to be 0.0805 E-score.

CTAGATTA: the binding signal is 0.0323 E-score.

Turning to ACCCCGCG, the binding signal was found to be 0.264 E-score.

On to AAGCGCTC, for which the binding signal is -0.0755 E-score.

As for CATCGTGA, the binding signal was found to be 0.0525 E-score.

As to AGATGTAG, the binding signal was 0.0572 E-score.

Turning to AACGCATA, the binding signal amounted to 0.203 E-score.

ACTCCCCC: the binding signal is -0.086 E-score.

In the case of AGCTGTAA, the binding signal is -0.26 E-score.

On to TTGGAAAA, for which the binding signal was -0.0998 E-score.

With GACCAGAC, the binding signal was -0.312 E-score.

Consider AAATGTCG, for which the binding signal was -0.205 E-score.

On to AACTTGTG, for which the binding signal turned out to be 0.0298 E-score.

On to AATAACCA, for which the binding signal is -0.121 E-score.

On to TAAGACGA, for which the binding signal was determined as 0.0197 E-score.

In the case of CGAGGTGC, the binding signal is -0.0819 E-score.

Take GGGTACTA: the binding signal came out at 0.126 E-score.

Turning to GTGTCTGA, the binding signal stood at 0.0497 E-score.

In the case of CCTGGATA, the binding signal worked out at 0.313 E-score.

Regarding CGCGTCTA, the binding signal is 0.0662 E-score.

For AGCTTTGG, the binding signal was -0.137 E-score.

On to GCGCATCA, for which the binding signal was -0.0358 E-score.

As for CCGTGCGC, the binding signal is -0.0181 E-score.

Turning to CAGAGCCC, the binding signal was -0.094 E-score.

As to ATATTCAC, the binding signal worked out at 0.138 E-score.

For CCCCGCCC, the binding signal came to 0.244 E-score.

As for CCCACTGC, the binding signal was -0.0736 E-score.

In the case of CCCAACCG, the binding signal was -0.132 E-score.

Take CCAGTTTC: the binding signal was -0.0118 E-score.

For TAGCGCGA, the binding signal is -0.0508 E-score.
